Over roughly 33,000 sequences, “E-score (-0.5 to 0.5)” has its median near -0.04; the highest 2% begin near 0.36. This is one part of the list.
molecular target: T1, Hmlalpha2 (UniProt P0CY09); test: PBM E-score (8-mer binding enrichment) (E-score (-0.5 to 0.5)); higher = stronger / more preferred TF binding; most listed sequences are background and not binding sites; settings: protein concentration: 200 nM; construct: GST-full length
T1 sequence: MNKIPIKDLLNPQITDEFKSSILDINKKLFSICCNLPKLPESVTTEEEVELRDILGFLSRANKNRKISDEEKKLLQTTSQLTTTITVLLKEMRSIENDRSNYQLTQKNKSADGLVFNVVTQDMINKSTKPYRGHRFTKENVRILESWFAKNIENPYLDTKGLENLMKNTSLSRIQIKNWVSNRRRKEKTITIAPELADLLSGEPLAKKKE
Description: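 Universal 'all 10-mer' protein binding microarrays (Agilent AMADID 015681) probed with GST-tagged S. cerevisiae TFs (full-length or DBD) made by in vitro transcription/translation (PURExpress), about 100-200 nM. Bound TF was detected with fluorescent anti-GST. Each ungapped 8-mer (which stands for itself and its reverse complement) is scored by the PBM enrichment score (E-score), a modified Wilcoxon-Mann-Whitney statistic from -0.5 to +0.5, computed with the Universal PBM Analysis Suite. Scale: above 0.35 generally sequence-specific binding.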

Sequence	PBM E-score
ATGCTCTC	-0.00497
CTTAAGGA	-0.0813
CTACGGGA	-0.28
ATACCCGC	0.0858
AGTCGAAG	-0.0301
ACCTCGCT	-0.139
CCTATTTA	0.0457
ACCGCACT	-0.0646
AGGAACCC	-0.154
AATAACAG	0.307
CAACAGGA	-0.0223
GCGGCACC	-0.184
CTGACCCA	-0.239
CGCTCTTA	0.0692
CCCGTTGC	-0.185
GCAAGTTA	0.149
GCTGCGAC	-0.17
TGTGCACA	0.0852
ATACGACG	0.146
CAACGTAG	0.128
CCGTTAGA	-0.0606
GCAGACGA	-0.192
AAGTTAGC	0.081
ATATTCCG	0.00723
CGCGGAGC	-0.196

Sequence	PBM E-score
GGTTTGAA	0.0337
CATAGTGC	0.129
GTCCGAAA	-0.0905
ACACCCGT	0.169
CGCAAGGA	-0.139
GGGCTATA	-0.208
AGTGTGTC	0.174
CGAACAAG	0.0622
ATTAGAGA	-0.0241
GCATGATA	0.116
CCAGTCAG	-0.184
ACCACTAA	0.192
ACGACAAT	0.181
AAGGTGGT	-0.0621
ACACACAG	0.364
AGTGCACC	-0.2
CCAGGATA	-0.0585
CATGCGGA	-0.173
ACGTTATA	0.275
CAGCACGC	0.0242
CGCACCCA	-0.19
ATGATGAG	0.0587
ACAACGGC	0.00748
GTCTACTA	0.069
ACAACCCA	0.133

Sequence	PBM E-score
AGTGCATC	-0.0502
AAGGGAGG	-0.31
GTAGTTGA	0.215
CGTCGACG	-0.268
AAGGCGGA	-0.225
CATCTTAA	0.0666
GCACCTCA	0.0504
CTCAACGC	0.101
AACCTGAG	-0.0554
CGAGGTAG	-0.252
AAATGACG	0.185
CGCTTCAG	-0.119
CCCAAACG	-0.123
GAAAGAGC	-0.118
ATGCACGG	-0.114
CCCACGGC	-0.328
GCAGGCCA	-0.191
GAATATGA	-0.0988
AGGGTCTA	-0.151
ACCGTTGG	0.00354
CATTAGTC	-0.22
ACATGAGG	0.228
CTTTTACA	0.453
ATTCAGCC	-0.0921
ACGGGGTC	-0.254

Sequence	PBM E-score
ATCCCACA	-0.213
GGTGTAAC	0.288
CGAAAGAC	-0.224
ACGGCGCA	-0.00223
GATGTCCA	0.0503
TGAGTGAA	-0.137
ATCCCTTG	-0.118
GTAGGGCA	-0.0856
GAGATACC	-0.0698
CAAGGAAG	-0.0889
AGGCAGCG	-0.157
ATCAGAAG	-0.212
CACCTCAC	0.0105
CTTGTATC	0.264
GCCGGACC	-0.265
GTGAAAGA	0.0174
TACCGCGA	0.0959
CTGACCTC	-0.26
AGTAGTTG	0.041
AAATCGTG	0.266
AAAAAACG	0.126
GGAATTTA	0.0391
CGGTGATA	-0.135
AACCTCCC	-0.0491
CTATCGCC	-0.178

Sequence	PBM E-score
AAGCAACT	0.0588
CCGTTAGC	-0.155
CGCTAATC	-0.0758
CAGATTCC	-0.174
ACCAATCT	0.00195
CTGATGAC	-0.124
GCGGATGA	-0.0895
ATACAATA	0.21
CATGAGAG	-0.0349
ACCCTCGC	-0.268
ACACCTCC	-0.0587
AGGCGTTG	0.0651
GTGGATCA	-0.146
ATACTCTA	0.136
GCAGTAAC	0.0483
AACCCGTC	-0.105
GTCGCCGA	-0.113
ACTTCAAC	0.194
GAGACACA	0.0105
AAAAACTA	0.234
AGACACTC	-0.0658
AGAACCGC	0.0282
TACCGCTA	-0.0146
TAGCCGAA	-0.202
CGTGTGGA	0.0377

Sequence	PBM E-score
CTTAGTCC	-0.171
TCACTAGA	-0.0174
CAGTAATG	0.167
CGTTATAC	0.252
ACACCCAC	0.044
CCTCGGCC	-0.237
CAAATAAG	0.0178
AGTAACTA	0.213
ATTAGATG	0.267
CATTCAAC	0.211
CATCCGGC	-0.302
TAAGGGAA	0.051
TTAAAGAA	0.11
GTGGTCCA	-0.14
GTGCATAA	0.121
ACCATGAA	0.0926
ACCAAACT	-0.0567
GCTTCCAC	-0.151
AGTTGGCC	-0.124
CGGGCGCC	-0.164
ATGCCAGA	-0.0916
AATTGAGG	-0.0022
GCCCAAGA	-0.23
AAGATCCT	-0.014
ATATATCA	-0.0343

Sequence	PBM E-score
ACCGCCTC	-0.149
CAGATTTA	0.0684
ACGGGACA	-0.252
AAGGCAAC	-0.00447
CTATTCAG	-0.0751
ACAGATCT	-0.0446
AAGGTCGC	-0.278
AGAGGGGC	-0.241
AATCACCC	-0.0662
GCTGTAAC	0.0767
AAAGATAC	-0.0716
GCTAGTCA	-0.169
GTGGTGTA	0.288
AGCGACTC	-0.119
AATAAATA	0.307
GGTGAAAA	0.0699
CGCAGAGA	-0.195
AGCTCCTG	-0.184
TGAGTTAA	0.139
AATAAAGG	-0.171
AGGGCACC	-0.242
CCCAAGAG	-0.203
AGAAGCCG	-0.23
GATCTCCC	-0.307
ACAACAAT	0.22

Sequence	PBM E-score
ATGCAGTC	-0.011
CACCCGAG	-0.263
AGCTATTC	-0.185
ACTTGGCT	-0.0523
CTAACAGA	0.00369
GGCGCTCA	-0.155
GGCGGCGA	-0.179
AGAGCATC	-0.221
TACGGCGA	-0.0117
GTACAATA	0.31
CCGAGTAC	0.00214
CCTATAAC	0.027
ATATATCG	0.0853
AAGTCGTA	0.0637
CAGACCTC	-0.145
GGGGGCAA	-0.346
ACTCCCTG	-0.167
AGTCAACA	0.269
CAGGGCAA	-0.0762
AACGTAAC	0.207
CATCAAGA	-0.0489
AAAAGTCT	-0.0887
TGAATACA	0.397
CAAAATAG	-0.151
AGCATGGA	-0.00786

Sequence	PBM E-score
AGCGACAG	-0.154
GAGTGGAA	-0.112
AGGGCCAA	-0.236
GCTATGAC	-0.165
AGCCAATC	-0.198
ACGTCAGC	0.114
CCGTCACG	-0.201
TCCGAGCA	0.0287
CCAAAGGC	-0.0627
ACCTAGCA	0.0501
GAAGGCAA	-0.213
AAGATATG	0.131
CGTAGTAA	0.203
AATCCAGG	-0.107
ACAGACGA	0.0861
AATGCGAT	0.0785
CACGTGAG	0.0837
GCCCGATA	-0.151
CCGCAAAG	-0.131
ACGGTTTC	-0.101
GCACATAC	-0.0597
ACGTCTCA	0.0957
CTGGTCGA	-0.258
AATTCGAA	0.0227
GATAGTTA	0.0121

Sequence	PBM E-score
CTAGCTCA	-0.0217
AGTATGCC	-0.0836
CATGGATC	-0.13
AGGAGCAA	-0.297
AAACATCA	0.278
AGGTAGGG	-0.236
GACCTTGA	-0.0898
AGACGTTA	0.101
AGAATTCC	-0.12
ACACTTGG	-0.121
GGTGCCAA	-0.0608
ACTTCGAG	-0.109
ATCGGCTC	0.0259
AAGGATGA	0.0106
CATGCACG	0.181
CACTATTC	0.0491
AAGAGATG	-0.0147
CTGGACCA	-0.101
AAGTTCGG	-0.0732
TGTCAGAA	0.109
GCTACAAA	0.0715
ATGCAACC	-0.0909
ACGTTGAA	0.186
CGAGAATC	-0.0327
ATCGACCA	-0.177

Sequence	PBM E-score
ACACAATC	0.349
GGATTAAC	0.198
CCCGCCTA	-0.0214
AAGCCCGA	-0.159
CGTCTAGC	0.0382
AATAAGAC	0.0589
ATGATATC	-0.0185
CGCCGCTC	-0.135
ATGAGCCA	-0.0144
CCCCACGC	-0.411
AGGACTCG	-0.0869
GACAAATA	0.161
CAGGGATC	-0.28
ACCCGCAC	-0.246
TGATTGCA	0.134
AAATCCCG	-0.294
AGGATTGC	-0.148
CAGACGGG	-0.25
CACAGGGC	-0.0847
CACGGCAA	0.0473
AACATCAG	0.214
TACGGAAA	-0.11
CGTGCCCA	-0.162
AAATGGTC	-0.0885
TACCGACA	-0.00492

Sequence	PBM E-score
ATCTCAGC	-0.107
CGCATTCC	-0.284
AAAGCCAT	0.0384
GTGAGTGA	-0.0437
ACCCTAAC	0.0443
GCCAAAGC	-0.326
AATGATAG	0.0254
ATCGTTTG	0.0517
GACTACAC	0.362
ATCGCAGA	-0.00108
ACTAAGCG	-0.116
CACGGATC	0.0909
ACCTAAAT	0.00256
CTAACTTA	0.151
GCACCTGC	-0.236
ATAGTGTG	0.0162
GAACCAGC	-0.0938
GGTCAGGA	-0.271
CTTCCTAC	-0.169
GGATAGCA	-0.128
CTGTTAGA	0.0574
GGGTCTAC	-0.0437
CAGGCAAG	-0.112
CGCCGCCC	-0.329
CTGCAGCA	-0.00896

Sequence	PBM E-score
CTTCAGTA	-0.0693
TAAAACCA	0.189
GCATGCAA	0.133
ACGCGCTA	0.288
ATCTGCGC	-0.0447
CCAGGTCG	-0.0766
AAGGTAGG	-0.132
CGATCATA	0.0505
GAGGAAAA	-0.174
TGGTGAAA	-0.0269
GGACGCCC	-0.202
CAGGTCAA	-0.0762
AAACACTG	0.154
AACGGTCT	-0.111
AGTGATTG	-0.0798
ACGAGTGG	-0.245
CCGGTGGA	-0.259
ACGTCGTA	0.171
ATTCTAGA	-0.033
GCAAGACA	-0.111
CTGTCGAC	0.0636
GTTAATAA	0.318
CCACGGCG	-0.0275
TGGCCCAA	-0.196
CCACTCTC	-0.183

Sequence	PBM E-score
AGGCTCGA	-0.102
GGGCAGCA	-0.141
CCGACCAA	0.0583
AGCCCATC	-0.236
ACGACACT	0.0474
ACAGTCGC	-0.125
ACTATCTC	-0.177
CGTATGTC	0.131
AAGTTAAC	0.303
CAACTCTC	-0.121
CCAATCCC	-0.265
CACCATAC	-0.147
GTTGACGA	0.103
ATAAATTA	0.314
ACCAGTCA	-0.0542
CAGTGCAA	-0.0307
GTTTCTAA	0.146
TACACCCA	0.159
CAAATTTG	-0.0243

From the supplement of paper PMC3334620
